# Experimental data published in PMC9911399, “Two distinct binding modes provide the RNA-binding protein RbFox with extraordinary sequence specificity”.
# Residue numbers refer to the chain shown, from its start. The list shows a part of the results.
# B1: UAGCUAU (DNA:RNA)
# RNA: GGGAGACCGGAAUUCAGAUUGUCCUAGCUAUUUAAAUCCCGUCGUAGCCACCA
# DNA 1: CAATCTGAATTCCGGTCTCCC
# DNA 2: TGGTGGCTACGACGGGATT
# B2: CGCCUUC (DNA:RNA)
# RNA: B1 RNA with U25C, A26G, G27C, A30U, U31C
# DNA 1: CAATCTGAATTCCGGTCTCCC
# DNA 2: TGGTGGCTACGACGGGATT
# B3: CCAUUUC (DNA:RNA)
# RNA: B1 RNA with U25C, A26C, G27A, C28U, A30U, U31C
# DNA 1: CAATCTGAATTCCGGTCTCCC
# DNA 2: TGGTGGCTACGACGGGATT
# B4: GUCGUAU (DNA:RNA)
# RNA: B1 RNA with U25G, A26U, G27C, C28G
# DNA 1: CAATCTGAATTCCGGTCTCCC
# DNA 2: TGGTGGCTACGACGGGATT
# B5: GAAUUCU (DNA:RNA)
# RNA: B1 RNA with U25G, G27A, C28U, A30C
# DNA 1: CAATCTGAATTCCGGTCTCCC
# DNA 2: TGGTGGCTACGACGGGATT
# B6: CUGCGUA (DNA:RNA)
# RNA: B1 RNA with U25C, A26U, U29G, A30U, U31A
# DNA 1: CAATCTGAATTCCGGTCTCCC
# DNA 2: TGGTGGCTACGACGGGATT
# B7: CUCCCGU (DNA:RNA)
# RNA: B1 RNA with U25C, A26U, G27C, U29C, A30G
# DNA 1: CAATCTGAATTCCGGTCTCCC
# DNA 2: TGGTGGCTACGACGGGATT
# B8: AUACGAC (DNA:RNA)
# RNA: B1 RNA with U25A, A26U, G27A, U29G, U31C
# DNA 1: CAATCTGAATTCCGGTCTCCC
# DNA 2: TGGTGGCTACGACGGGATT
# B9: GGAGCGC (DNA:RNA)
# RNA: GGGAGACCGGAAUUCAGAUUGUCCGGAGCGCUUAAAUCCCGUCGUAGCCACCA
# DNA 1: CAATCTGAATTCCGGTCTCCC
# DNA 2: TGGTGGCTACGACGGGATT
# B10: AUCACGU (DNA:RNA)
# RNA: B9 RNA with G25A, G26U, A27C, G28A, C31U
# DNA 1: CAATCTGAATTCCGGTCTCCC
# DNA 2: TGGTGGCTACGACGGGATT
# B11: GCCCAGC (DNA:RNA)
# RNA: B9 RNA with G26C, A27C, G28C, C29A
# DNA 1: CAATCTGAATTCCGGTCTCCC
# DNA 2: TGGTGGCTACGACGGGATT
# B12: UUAAGCC (DNA:RNA)
# RNA: B9 RNA with G25U, G26U, G28A, C29G, G30C
# DNA 1: CAATCTGAATTCCGGTCTCCC
# DNA 2: TGGTGGCTACGACGGGATT
# B13: CCCCCGA (DNA:RNA)
# RNA: B9 RNA with G25C, G26C, A27C, G28C, C31A
# DNA 1: CAATCTGAATTCCGGTCTCCC
# DNA 2: TGGTGGCTACGACGGGATT
# B14: ACGACCA (DNA:RNA)
# RNA: B9 RNA with G25A, G26C, A27G, G28A, G30C, C31A
# DNA 1: CAATCTGAATTCCGGTCTCCC
# DNA 2: TGGTGGCTACGACGGGATT
# B15: CUGAUCU (DNA:RNA)
# RNA: B1 RNA with U25C, A26U, C28A, A30C
# DNA 1: CAATCTGAATTCCGGTCTCCC
# DNA 2: TGGTGGCTACGACGGGATT
# B16: GUUGGUC (DNA:RNA)
# RNA: B9 RNA with G26U, A27U, C29G, G30U
# DNA 1: CAATCTGAATTCCGGTCTCCC
# DNA 2: TGGTGGCTACGACGGGATT
# B17: GUCGGCU (DNA:RNA)
# RNA: B9 RNA with G26U, A27C, C29G, G30C, C31U
# DNA 1: CAATCTGAATTCCGGTCTCCC
# DNA 2: TGGTGGCTACGACGGGATT
# B18: CGUGGGA (DNA:RNA)
# RNA: B9 RNA with G25C, A27U, C29G, C31A
# DNA 1: CAATCTGAATTCCGGTCTCCC
# DNA 2: TGGTGGCTACGACGGGATT
# B19: GCAAGAU (DNA:RNA)
# RNA: B9 RNA with G26C, G28A, C29G, G30A, C31U
# DNA 1: CAATCTGAATTCCGGTCTCCC
# DNA 2: TGGTGGCTACGACGGGATT
# B20: GCUCCGG (DNA:RNA)
# RNA: B9 RNA with G26C, A27U, G28C, C31G
# DNA 1: CAATCTGAATTCCGGTCTCCC
# DNA 2: TGGTGGCTACGACGGGATT
# B21: GGGCCCC (DNA:RNA)
# RNA: B9 RNA with A27G, G28C, G30C
# DNA 1: CAATCTGAATTCCGGTCTCCC
# DNA 2: TGGTGGCTACGACGGGATT
# B22: ACCCGCA (DNA:RNA)
# RNA: B1 RNA with U25A, A26C, G27C, U29G, A30C, U31A
# DNA 1: CAATCTGAATTCCGGTCTCCC
# DNA 2: TGGTGGCTACGACGGGATT
# B23: GAAUCAU (DNA:RNA)
# RNA: B9 RNA with G26A, G28U, G30A, C31U
# DNA 1: CAATCTGAATTCCGGTCTCCC
# DNA 2: TGGTGGCTACGACGGGATT
# B24: CUGGGAU (DNA:RNA)
# RNA: B1 RNA with U25C, A26U, C28G, U29G
# DNA 1: CAATCTGAATTCCGGTCTCCC
# DNA 2: TGGTGGCTACGACGGGATT
# B25: ACAAACU (DNA:RNA)
# RNA: B9 RNA with G25A, G26C, G28A, C29A, G30C, C31U
# DNA 1: CAATCTGAATTCCGGTCTCCC
# DNA 2: TGGTGGCTACGACGGGATT
# B26: UGAUGUG (DNA:RNA)
# RNA: B9 RNA with G25U, G28U, C29G, G30U, C31G
# DNA 1: CAATCTGAATTCCGGTCTCCC
# DNA 2: TGGTGGCTACGACGGGATT
# B27: ACUCACC (DNA:RNA)
# RNA: B9 RNA with G25A, G26C, A27U, G28C, C29A, G30C
# DNA 1: CAATCTGAATTCCGGTCTCCC
# DNA 2: TGGTGGCTACGACGGGATT
# B28: AGGGACU (DNA:RNA)
# RNA: B9 RNA with G25A, A27G, C29A, G30C, C31U
# DNA 1: CAATCTGAATTCCGGTCTCCC
# DNA 2: TGGTGGCTACGACGGGATT
# B29: GUAGGCC (DNA:RNA)
# RNA: B9 RNA with G26U, C29G, G30C
# DNA 1: CAATCTGAATTCCGGTCTCCC
# DNA 2: TGGTGGCTACGACGGGATT
# B30: GAUCAUA (DNA:RNA)
# RNA: B1 RNA with U25G, G27U, U29A, A30U, U31A
# DNA 1: CAATCTGAATTCCGGTCTCCC
# DNA 2: TGGTGGCTACGACGGGATT
# B31: GAGUCGC (DNA:RNA)
# RNA: B9 RNA with G26A, A27G, G28U
# DNA 1: CAATCTGAATTCCGGTCTCCC
# DNA 2: TGGTGGCTACGACGGGATT
# Molecular target: T1, RBFOX1 RRM RbFoxmut (Fox-RRM*) (Homo sapiens, UniProt Q9NWB1 109-208, R118D;E147R;N151S;E152T)
# T1 sequence: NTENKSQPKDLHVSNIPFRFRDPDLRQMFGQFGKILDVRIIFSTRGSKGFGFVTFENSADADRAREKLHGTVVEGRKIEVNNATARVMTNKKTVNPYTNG
# Experiment: EMSA; HiTS-Eq, 1 nM pool, 10 min; buffer printed only for the single-RNA assays: 10 mM Tris pH 7.5, 150 mM NaCl, 3.4 mM EDTA, 0.001% NP-40, 30 C
# Details: tags: His6 N-terminal (pET28a); label: 5' 32P
# Outline: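 Purified wild-type or mutant RbFox RRM at increasing concentrations was equilibrated with 1 nM of 5′-radiolabelled RNA carrying 7 randomized nucleotides for 10 min in 50 µL. Unbound RNA was separated by 8% native PAGE and sequenced. Relative association constants came from read-count changes of each RNA species compared with the control reaction, normalised to the cognate motif.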
row,Binder,binding signal
1,B1,0.0941 KA relative to UGCAUGU
2,B2,0.104 KA relative to UGCAUGU
3,B3,0.0493 KA relative to UGCAUGU
4,B4,0.145 KA relative to UGCAUGU
5,B5,0.0477 KA relative to UGCAUGU
6,B6,0.186 KA relative to UGCAUGU
7,B7,0.047 KA relative to UGCAUGU
8,B8,0.0716 KA relative to UGCAUGU
9,B9,0.088 KA relative to UGCAUGU
10,B10,0.121 KA relative to UGCAUGU
11,B11,0.0724 KA relative to UGCAUGU
12,B12,0.106 KA relative to UGCAUGU
13,B13,0.106 KA relative to UGCAUGU
14,B14,0.0707 KA relative to UGCAUGU
15,B15,0.0527 KA relative to UGCAUGU
16,B16,0.164 KA relative to UGCAUGU

row,Binder,binding signal
1,B17,0.116 KA relative to UGCAUGU
2,B18,0.0817 KA relative to UGCAUGU
3,B19,0.0667 KA relative to UGCAUGU
4,B20,0.0646 KA relative to UGCAUGU
5,B21,0.0574 KA relative to UGCAUGU
6,B22,0.101 KA relative to UGCAUGU
7,B23,0.264 KA relative to UGCAUGU
8,B24,0.0962 KA relative to UGCAUGU
9,B25,0.0787 KA relative to UGCAUGU
10,B26,0.184 KA relative to UGCAUGU
11,B27,0.114 KA relative to UGCAUGU
12,B28,0.0576 KA relative to UGCAUGU
13,B29,0.17 KA relative to UGCAUGU
14,B30,0.0779 KA relative to UGCAUGU
15,B31,0.114 KA relative to UGCAUGU
